Laboratory results as given in the antibiotic and cytotoxicity screens of Wong et al. (2023).
Some of the results follow.

test system: HSkMC (human skeletal muscle cells); test: cytotoxicity call (relative viability < 0.9); details: 10 µM

Row | Compound | cytotoxicity call
1 | C[C@H]1CN([C@@H](C)CO)C(=O)c2ccccc2-c2ccccc2CO[C@@H]1CN(C)Cc1ccc(Cl)c(Cl)c1 | inactive
2 | C[C@@H]1ON(c2ccc(I)cc2)[C@H](c2ccc(OC(=O)OC(C)(C)C)cc2)[C@H]1C(=O)N1C(=O)OC[C@H]1Cc1ccccc1 | inactive
3 | C[C@H](CO)N1C[C@H](C)[C@@H](CN(C)Cc2ccccc2)Oc2ccc(NC(=O)Cn3cnnn3)cc2C1=O | inactive
4 | C[C@@H]1CN([C@H](C)CO)C(=O)c2cccc(NC(=O)C3CC3)c2O[C@H]1CN(C)Cc1ccc(Oc2ccccc2)cc1 | inactive
5 | C[C@@H]1CN([C@H](C)CO)C(=O)c2cc(C3=CCCC3)cnc2O[C@H]1CN(C)S(=O)(=O)c1cn(C)cn1 | inactive
6 | C[C@H](CO)N1C[C@H](C)[C@H](CN(C)C(=O)c2ccccc2)OCCCC[C@H](C)Oc2ccc(NC(=O)c3ccccc3)cc2C1=O | inactive
7 | Cc1noc(C)c1S(=O)(=O)Nc1cccc2c1O[C@@H](CN(C)Cc1ccncc1)[C@@H](C)CN([C@@H](C)CO)C2=O | inactive
8 | COc1ccc(NC(=O)Nc2ccc3c(c2)C(=O)N([C@H](C)CO)C[C@H](C)[C@H](CN(C)S(=O)(=O)c2ccc(F)cc2)OCCCC[C@H](C)O3)cc1 | inactive
9 | CCS(=O)(=O)Nc1ccc2c(c1)C(=O)N(C)[C@@H]1CC[C@@H](CC(=O)N[C@H]3CCN(Cc4ccccc4)C3)O[C@@H]1CO2 | inactive
10 | C[C@H]1CN([C@@H](C)CO)C(=O)c2cc(NC(=O)Nc3cccc4ccccc34)ccc2O[C@H]1CN(C)Cc1ccc(C(=O)Nc2ccccc2N)cc1 | inactive
11 | CC(=O)N1[C@H](CO)[C@@H](c2ccccc2)[C@H]1CNC(=O)CN1CCOCC1 | inactive
12 | C[C@H]1CN([C@@H](C)CO)C(=O)Cc2cc(NC(=O)Nc3ccc4c(c3)OCO4)ccc2O[C@@H]1CN(C)Cc1ccc(C(=O)Nc2ccccc2N)cc1 | inactive
13 | COc1ccc([C@H]2CNCCN2)cc1 | inactive
14 | CC(C)NC(=O)Nc1ccc2c(c1)C(=O)N([C@H](C)CO)C[C@@H](C)[C@@H](CN(C)S(=O)(=O)c1ccc(Cl)cc1)O2 | inactive
15 | Cc1noc(C)c1NC(=O)Nc1ccc2c(c1)C(=O)N([C@H](C)CO)C[C@H](C)[C@@H](CN(C)C(=O)Nc1c(C)noc1C)OCCCC[C@@H](C)O2 | inactive
16 | Cc1ccc(S(=O)(=O)Nc2ccc3c(c2)C(=O)N([C@H](C)CO)C[C@@H](C)[C@@H](CN(C)Cc2ccccc2)OCCCC[C@@H](C)O3)cc1 | inactive
17 | O=[N+]([O-])c1ncn(Cc2ccccn2)n1 | inactive
18 | C[C@H](CO)N1C[C@H](C)[C@@H](CN(C)Cc2ccc(Cl)c(Cl)c2)Oc2ccc(NS(=O)(=O)c3ccccc3)cc2CC1=O | inactive
19 | O=C(C[C@H]1CC[C@@H]2[C@H](COC[C@H](O)CN2S(=O)(=O)c2ccccc2)O1)N1CCOCC1 | inactive
20 | COc1ccc(CN(C)C[C@H]2Oc3c(NS(=O)(=O)c4c(C)noc4C)cccc3C(=O)N([C@H](C)CO)C[C@H]2C)cc1 | inactive

Row | Compound | cytotoxicity call
21 | COc1ccc(CN(C)C[C@H]2OCCCC[C@H](C)Oc3ccc(NS(=O)(=O)c4ccc(Cl)cc4)cc3C(=O)N([C@H](C)CO)C[C@H]2C)cc1 | inactive
22 | C[C@H]1CN([C@@H](C)CO)C(=O)c2cc(NS(=O)(=O)c3ccccc3)ccc2O[C@@H]1CN(C)C(=O)Nc1cccc2ccccc12 | inactive
23 | Cc1noc(C)c1S(=O)(=O)Nc1ccc2c(c1)CC(=O)N([C@H](C)CO)C[C@@H](C)[C@@H](CN(C)Cc1ccc(Oc3ccccc3)cc1)O2 | inactive
24 | CC(C)N1C[C@H](C)[C@@H](CN(C)Cc2ccc(Oc3ccccc3)cc2)Oc2c(NC(=O)c3cccnc3)cccc2C1=O | inactive
25 | CC1=CC2(CO)C(=O)[C@]3(CO3)C1[C@H]1[C@]2(C)C=C(CO)C(=O)[C@]12CO2 (stereo not given in full) | inactive
26 | C[C@H](CO)N1C[C@H](C)[C@@H](CN(C)C(=O)CCC(F)(F)F)OCCCC[C@H](C)Oc2ccc(NC(=O)CCC(F)(F)F)cc2C1=O | inactive
27 | Cc1ccc(S(=O)(=O)Nc2ccc3c(c2)CC(=O)N([C@@H](C)CO)C[C@@H](C)[C@@H](CN(C)S(=O)(=O)c2cn(C)cn2)O3)cc1 | inactive
28 | C[C@H](O)C#Cc1ccc2c(c1)O[C@@H](CN(C)C)[C@@H](C)CN([C@@H](C)CO)S2(=O)=O | inactive
29 | C[C@H](CO)N1C[C@H](C)[C@H](CN(C)Cc2ccc(Oc3ccccc3)cc2)Oc2ncc(-c3cccnc3)cc2C1=O | inactive
30 | C[C@H](CO)N1C[C@H](C)[C@@H](CN(C)Cc2ccc(Oc3ccccc3)cc2)Oc2cc(Br)ccc2S1(=O)=O | inactive
31 | CCS(=O)(=O)Nc1ccc2c(c1)C(=O)N(C)[C@H]1CC[C@H](CC(=O)NCc3ccc(OC)cc3)O[C@@H]1CO2 | inactive
32 | CN1N=C2CCN(C(=O)[C@@H](COCc3ccccc3)NC(=O)C(C)(C)N)C[C@@]2(Cc2ccccc2)C1=O | inactive
33 | Cc1cc(C)n(-c2nc(=O)cc(C)[nH]2)n1 | inactive
34 | COC(=O)CCC(C)C1CCC2C3C(O)CC4CC(O)CCC4(C)C3CC(O)C12C (stereo not given) | inactive
35 | C[C@@H]1CCCCO[C@@H](CN(C)C(=O)Nc2ccc(C(F)(F)F)cc2)[C@H](C)CN([C@@H](C)CO)C(=O)c2cc(NS(=O)(=O)c3ccc(Cl)cc3)ccc2O1 | inactive
36 | C[C@H]1CN([C@@H](C)CO)C(=O)c2cc(NS(C)(=O)=O)ccc2O[C@H]1CN(C)S(=O)(=O)c1ccc(Cl)cc1 | inactive
37 | C=CC[C@H](CC(=O)NCCO)C(=O)NC[C@@H](OC(=O)[C@@H](CC=C)CC(=O)OC(C)(C)C)c1ccccc1 | inactive
38 | O=C(C[C@H]1C[C@@H]2c3cc(NC(=O)C4CCOCC4)ccc3O[C@@H]2[C@@H](CO)O1)NCc1ccc(Cl)cc1 | inactive
39 | CCc1oc(CC[C@@H](CO)NC(=O)NCCn2cc(C3(O)CCCCC3)nn2)c(C(=O)OC)c1C(=O)OC | inactive
40 | C[C@@H]1CCCCO[C@@H](CN(C)C(=O)C2CCCCC2)[C@H](C)CN([C@@H](C)CO)C(=O)c2cc(NC(=O)c3ccncc3)ccc2O1 | inactive
